The results in this text go back to article PMC4336329 (PLoS ONE, 2015).

Molecules are shown by their SMILES. Hit rate of the full screen: of about 310,000 compounds, about 14,000 (4.5%) showed an effect of 50% or more. The effect is printed as a negative number. The list shows a part of the results.
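Note: peak tail current of the secondary pulse compared with the same well before compound.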

For the test, the target named is human ether-à-go-go-related gene (hERG) potassium channel (human, UniProt Q12809). Put plainly: primary screen, population patch clamp on CHO cells stably expressing hERG.
human ether-à-go-go-related gene (hERG) potassium channel, sequence (Q12809 whole entry, looked up): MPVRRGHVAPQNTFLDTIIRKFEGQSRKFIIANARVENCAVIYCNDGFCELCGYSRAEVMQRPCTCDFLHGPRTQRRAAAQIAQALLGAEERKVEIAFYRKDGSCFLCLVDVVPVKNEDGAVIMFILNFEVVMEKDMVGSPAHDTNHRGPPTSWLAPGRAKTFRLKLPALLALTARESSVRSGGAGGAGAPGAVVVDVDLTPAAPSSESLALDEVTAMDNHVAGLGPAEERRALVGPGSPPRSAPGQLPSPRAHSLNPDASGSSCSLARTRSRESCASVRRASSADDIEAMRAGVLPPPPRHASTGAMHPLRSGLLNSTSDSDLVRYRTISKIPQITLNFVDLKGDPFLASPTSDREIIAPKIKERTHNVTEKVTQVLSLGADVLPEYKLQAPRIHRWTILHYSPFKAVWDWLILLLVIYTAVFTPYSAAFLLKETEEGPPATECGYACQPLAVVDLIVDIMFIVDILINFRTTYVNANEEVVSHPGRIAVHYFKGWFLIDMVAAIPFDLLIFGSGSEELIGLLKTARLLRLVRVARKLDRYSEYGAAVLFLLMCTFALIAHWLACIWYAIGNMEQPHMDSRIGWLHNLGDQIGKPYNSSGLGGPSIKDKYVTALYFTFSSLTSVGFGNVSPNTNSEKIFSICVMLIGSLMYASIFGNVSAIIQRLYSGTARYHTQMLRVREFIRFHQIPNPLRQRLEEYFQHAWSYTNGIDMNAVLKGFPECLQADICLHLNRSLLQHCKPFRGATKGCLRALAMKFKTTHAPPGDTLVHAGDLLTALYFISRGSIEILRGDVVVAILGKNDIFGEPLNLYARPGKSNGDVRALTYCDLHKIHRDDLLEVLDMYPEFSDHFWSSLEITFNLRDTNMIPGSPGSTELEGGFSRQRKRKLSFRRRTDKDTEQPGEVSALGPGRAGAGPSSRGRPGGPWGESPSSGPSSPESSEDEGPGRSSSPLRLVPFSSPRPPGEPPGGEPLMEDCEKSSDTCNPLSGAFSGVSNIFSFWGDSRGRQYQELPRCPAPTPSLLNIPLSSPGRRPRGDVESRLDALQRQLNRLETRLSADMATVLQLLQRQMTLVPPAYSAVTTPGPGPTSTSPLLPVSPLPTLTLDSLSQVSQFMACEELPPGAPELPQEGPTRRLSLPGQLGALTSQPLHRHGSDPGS
On to `CCC(=NCc1cccnc1)c1c(O)n(-c2ccc(Cl)cc2)c(=O)[nH]c1=O`, for which the “hERG current change (%, negative = inhibition) at 10uM” value was -5.41%.

With `CC(NC(=O)c1cc(COc2ccc3ncccc3c2)on1)c1ccc(F)cc1` (centres unmarked), the “hERG current change (%, negative = inhibition) at 10uM” value stood at 2.84%.

Take `O=C(c1ccc(Cl)c(S(=O)(=O)N2CCCCCC2)c1)N1CCCC1`: the “hERG current change (%, negative = inhibition) at 10uM” value was -38.9%.

Regarding `Cc1ccc(S(=O)(=O)NCc2ccccc2C)cc1`, the “hERG current change (%, negative = inhibition) at 10uM” value is given as 11.6%.

As for `N#Cc1c(-c2ccccc2)ccn(Cc2ccc(Cl)cc2)c1=O`, the “hERG current change (%, negative = inhibition) at 10uM” value is given as 9.74%.

Consider `Cc1n[nH]c(C)c1S(=O)(=O)N1CCN(S(=O)(=O)c2ccccc2C#N)CC1`, for which the “hERG current change (%, negative = inhibition) at 10uM” value is 10.6%.

As for `O=C(Nc1ccc(F)cc1)c1csc(Cc2ccccc2)n1`, the “hERG current change (%, negative = inhibition) at 10uM” value is on record as -28.9%.

`CCCCNC(=O)NNc1nc(Cl)cc(C)c1C#N`: the “hERG current change (%, negative = inhibition) at 10uM” value was found to be 29.2%.

Turning to `O=C1CCC(C(=O)N2CCCCCC2)CN1CCc1ccc(Cl)cc1` (centres unmarked), the “hERG current change (%, negative = inhibition) at 10uM” value is reported as -28.9%.

For `COc1cc(C2/C(=C(\O)c3ccc4c(c3)OCCO4)C(=O)C(=O)N2Cc2ccccc2)ccc1O` (centres unmarked), the “hERG current change (%, negative = inhibition) at 10uM” value is listed as 16.1%.

For `c1ccc2[nH]c(SCC3CCCCO3)nc2c1` (centres unmarked), the “hERG current change (%, negative = inhibition) at 10uM” value was determined as 11.1%.

For the compound `CCC(=O)Nc1c(OC(=O)CC)ccc2c(C)cc(=O)oc12`, the “hERG current change (%, negative = inhibition) at 10uM” value is listed as 16.3%.

As for `CCOC(=O)c1c(-c2ccc(OC)cc2)csc1NC(=O)CSc1ccccc1`, the “hERG current change (%, negative = inhibition) at 10uM” value is given as -3.31%.

Regarding `COc1cc(OC)cc(C(=O)NC(=S)N2CCN(c3ccc(C(F)(F)F)cc3[N+](=O)[O-])CC2)c1`, the “hERG current change (%, negative = inhibition) at 10uM” value is 0.246%.

For `O=C(/C=C/c1ccc2c(c1)OCO2)c1ccco1`, the “hERG current change (%, negative = inhibition) at 10uM” value came to 19.4%.

On to `O=C(O)c1cccc(S(=O)(=O)Nc2ccccc2-c2ccccc2)c1`, for which the “hERG current change (%, negative = inhibition) at 10uM” value was found to be 26.2%.

On to `CN(C)C(CNC(=O)Cc1cccc(C(F)(F)F)c1)c1ccco1` (centres unmarked), for which the “hERG current change (%, negative = inhibition) at 10uM” value worked out at 4.08%.

On to `CCOc1ccc(C=NC23CN4CN(CN(C4)C2)C3)cc1`, for which the “hERG current change (%, negative = inhibition) at 10uM” value amounted to 9.36%.

In the case of `O=C(Nc1ccc(F)c(Cl)c1)C1CCCN(c2cnccn2)C1` (centres unmarked), the “hERG current change (%, negative = inhibition) at 10uM” value is listed as -24.9%.

In the case of `N#Cc1ccccc1CSc1nc(N2CCCCC2)nc(N2CCCCC2)n1`, the “hERG current change (%, negative = inhibition) at 10uM” value was 5.79%.

`CCN(Cc1nc2cc(Cl)ccc2c(=O)[nH]1)C(=O)c1cccc(NC(=O)c2cccs2)c1`: the “hERG current change (%, negative = inhibition) at 10uM” value is recorded as -24.7%.

In the case of `CN(Cc1cnccn1)C(=O)C1CCC(=O)N(CCc2ccccc2)C1` (centres unmarked), the “hERG current change (%, negative = inhibition) at 10uM” value is 19.7%.

On to `Cc1ccccc1C(=O)O/N=C(\N)c1ccc([N+](=O)[O-])cc1`, for which the “hERG current change (%, negative = inhibition) at 10uM” value is on record as -20.8%.

As for `Cc1ccc(N(CC(=O)N2CCN(c3ccc(F)cc3)CC2)S(=O)(=O)c2c(C)noc2C)cc1`, the “hERG current change (%, negative = inhibition) at 10uM” value is -39.5%.

On to `Cc1ccc(CS(=O)(=O)CCC(=O)NCC2CCCO2)cc1` (centres unmarked), for which the “hERG current change (%, negative = inhibition) at 10uM” value is reported as -21.9%.

`COc1ccc(-c2nc(CS(=O)CC(=O)N3CCN(C)CC3)c(C)o2)cc1` (centres unmarked): the “hERG current change (%, negative = inhibition) at 10uM” value amounted to 10.5%.

For the compound `O=C(Cn1ccc([N+](=O)[O-])n1)N1CCc2ccccc21`, the “hERG current change (%, negative = inhibition) at 10uM” value is -2.32%.

Consider `COc1ccc(-c2nc(CCNC(=O)c3ccc(Br)o3)cs2)cc1`, for which the “hERG current change (%, negative = inhibition) at 10uM” value is given as -6.4%.

In the case of `Cc1ccc(-n2cc(C(C)(C)C)[nH]c2=S)cc1`, the “hERG current change (%, negative = inhibition) at 10uM” value is given as 7.2%.

As to `COc1ccc(N(C(=O)c2cc3ccccc3oc2=O)C2C=CS(=O)(=O)C2)c(OC)c1` (centres unmarked), the “hERG current change (%, negative = inhibition) at 10uM” value is listed as -4.69%.

On to `COc1ccc(C2CC(=O)Oc3cc(O)cc(O)c32)cc1` (centres unmarked), for which the “hERG current change (%, negative = inhibition) at 10uM” value was found to be 2.27%.

As to `O=C(Nc1cc2cc([N+](=O)[O-])ccc2oc1=O)c1cccs1`, the “hERG current change (%, negative = inhibition) at 10uM” value stood at 14.1%.

For the compound `O=S(=O)(c1ccc(Cl)cc1)N1CCCCCC1`, the “hERG current change (%, negative = inhibition) at 10uM” value is -14.8%.

For the compound `O=C(N/N=C/c1cccnc1)c1cccc(Cl)c1`, the “hERG current change (%, negative = inhibition) at 10uM” value was determined as 0.742%.

`O=C(COC(=O)/C=C/c1ccc2c(c1)OCO2)NCc1ccccc1`: the “hERG current change (%, negative = inhibition) at 10uM” value came to 5.01%.

Regarding `Cc1cccc(CC(=O)NCCN2CCCCC2)c1`, the “hERG current change (%, negative = inhibition) at 10uM” value is given as 4.07%.

For `CCOc1ccc(S(=O)(=O)Nc2cc(Sc3ncn[nH]3)c3oc(=O)sc3c2)cc1`, the “hERG current change (%, negative = inhibition) at 10uM” value is given as 3.08%.

As for `CN1CCc2c(sc(/N=C/c3cc(Cl)ccc3O)c2C#N)C1`, the “hERG current change (%, negative = inhibition) at 10uM” value amounted to 3.09%.

As for `Cc1cc(C)c2cc(C(=O)N3CCC(C(=O)c4ccc(F)cc4)CC3)[nH]c2c1`, the “hERG current change (%, negative = inhibition) at 10uM” value was determined as 2.63%.

Turning to `Cc1ccc(C(=O)CCC(=O)NCc2ccccc2)cc1`, the “hERG current change (%, negative = inhibition) at 10uM” value worked out at 18.4%.

For `CN(Cc1nc(-c2ccncc2)no1)S(=O)(=O)c1ccccc1`, the “hERG current change (%, negative = inhibition) at 10uM” value is listed as 3.91%.

In the case of `Cc1nn(-c2ccccc2)c(C)c1C(=O)OCC(=O)Nc1ccccc1C(F)(F)F`, the “hERG current change (%, negative = inhibition) at 10uM” value is -2.17%.

Consider `COc1cccc(CNC(=O)CCC2CCCN(C(=O)Cc3ccccc3F)C2)c1` (centres unmarked), for which the “hERG current change (%, negative = inhibition) at 10uM” value is on record as -7.61%.

In the case of `CCCCOc1ccc(C(=O)N=c2sccn2C)cc1OC`, the “hERG current change (%, negative = inhibition) at 10uM” value worked out at 12.2%.

Regarding `COc1ccc(C2/C(=C(/O)c3ccc(Br)cc3)C(=O)C(=O)N2C)cc1` (centres unmarked), the “hERG current change (%, negative = inhibition) at 10uM” value is listed as -12.7%.

Consider `COc1ccc(CCN(C)CC(=O)Nc2ccc(F)c(Cl)c2)cc1OC`, for which the “hERG current change (%, negative = inhibition) at 10uM” value was -35.3%.

On to `CC(C)C(O)P(=O)(OCc1ccccc1)c1ccc(N(C)C)cc1` (centres unmarked), for which the “hERG current change (%, negative = inhibition) at 10uM” value is -5.55%.

`COc1cc(C(=O)Oc2ccc(Br)cc2C(=S)N2CCOCC2)cc(OC)c1OC`: the “hERG current change (%, negative = inhibition) at 10uM” value was -0.563%.

Turning to `COc1cc(C2C(C(N)=O)=C(C)Nc3nc(CCCO)nn32)cc(OC)c1OC` (centres unmarked), the “hERG current change (%, negative = inhibition) at 10uM” value is on record as 3.75%.

As to `CCN1CCN(c2ccc(NC(=O)C(C)C)cc2Cl)CC1`, the “hERG current change (%, negative = inhibition) at 10uM” value is -20%.

Turning to `CCn1ccnc1C(O)c1ccccc1OC` (centres unmarked), the “hERG current change (%, negative = inhibition) at 10uM” value is 1.47%.

Take `CCN(CC(=O)Nc1cccc(OC)c1)C(=O)c1cccc(S(=O)(=O)N2CCc3ccccc32)c1`: the “hERG current change (%, negative = inhibition) at 10uM” value was -1.63%.

On to `CC(C)N1C(=O)S/C(=C/c2ccc3c(c2)n(C)c(=O)n3C)C1=O`, for which the “hERG current change (%, negative = inhibition) at 10uM” value is recorded as -2.26%.

With `CC(Cc1ccccc1)N/C=C1\CC(=O)NC1=O` (centres unmarked), the “hERG current change (%, negative = inhibition) at 10uM” value is listed as -1.56%.

In the case of `Cc1ccc(N(CC(=O)NC2CC2)S(=O)(=O)c2ccccc2)c(C)c1`, the “hERG current change (%, negative = inhibition) at 10uM” value was determined as 3.86%.

Take `CCCCC(=O)O[C@]1(C(=O)CO)CC[C@H]2[C@@H]3CCC4=CC(=O)CC[C@]4(C)[C@H]3[C@@H](O)C[C@@]21C`: the “hERG current change (%, negative = inhibition) at 10uM” value was -8.61%.
